# Source: the antibiotic and cytotoxicity screens of Wong et al. (2023)
# The list shows a part of the results.
# Test system: HSkMC (human skeletal muscle cells)
# Experiment: cytotoxicity call (relative viability < 0.9)
# Details: 10 µM
row,SMILES,cytotoxicity call
1,O=C(C[C@@H]1CC[C@@H]2NC[C@H](O)COC[C@H]2O1)NCCN1CCCC1,inactive
2,CCCNC(=O)[C@@]1(C)c2ccccc2C(=O)N(Cc2ccc(OC(F)(F)F)cc2)[C@H]1c1ccc(CO)cc1,inactive
3,COc1ccc(CNCC(=O)O)cc1,inactive
4,C[C@@H]1O[C@H](O)[C@@H](F)[C@H](O)[C@@H]1O,inactive
5,C[C@@H]1CN([C@H](C)CO)C(=O)c2cc(NC(=O)Nc3cccc4ccccc34)ccc2O[C@@H](C)CCCCO[C@H]1CN(C)S(=O)(=O)c1ccc(Cl)cc1,inactive
6,COCCOC(=O)N1C(=O)[C@@]2(c3cc(C#CC4=CCCCC4)ccc31)[C@H](c1ccc(OCCO)cc1)N1[C@H](c3ccccc3)[C@H](c3ccccc3)OC(=O)[C@H]1[C@@H]2C(=O)N1CCc2cc(OC)c(OC)cc2C1,inactive
7,COC(=O)C1=C(C)NC(C)=C(C(=O)OCCCN2CCC(c3ccccc3)(c3ccccc3)CC2)[C@@H]1c1cccc([N+](=O)[O-])c1,active
8,C[C@H]1CN([C@@H](C)CO)C(=O)CCCn2cc(nn2)CO[C@@H]1CN(C)S(=O)(=O)c1cccc(C#N)c1,inactive
9,Cc1noc(C)c1NC(=O)Nc1cccc2c1O[C@@H](CN(C)C(=O)Nc1cccc3ccccc13)[C@@H](C)CN([C@H](C)CO)C2=O,inactive

# Test system: HepG2
# Experiment: cytotoxicity call (relative viability < 0.9)
# Details: 10 µM
row,SMILES,cytotoxicity call
1,C[C@H]1CN([C@@H](C)CO)C(=O)c2cc(NC(=O)CCC(F)(F)F)ccc2O[C@@H]1CN(C)S(C)(=O)=O,inactive
2,COC[C@@H](O)CSc1[nH]c(C)nc1[N+](=O)[O-],inactive
3,CN1C(=O)c2cc(NC(=O)c3ccc(F)c(F)c3)ccc2OC[C@H]2O[C@H](CC(=O)N3CCOCC3)CC[C@@H]21,inactive
4,C[C@@H]1CN([C@H](C)CO)C(=O)c2cc(NC(=O)CCN3CCOCC3)ccc2O[C@H]1CN(C)Cc1ccccc1,inactive
5,C[C@@H]1CCCCO[C@@H](CN(C)Cc2ccc3c(c2)OCO3)[C@@H](C)CN([C@H](C)CO)C(=O)c2cc(NC(=O)C3CCCCC3)ccc2O1,inactive
6,COc1ccc(S(=O)(=O)Nc2ccc3c(c2)C(=O)N([C@@H](C)CO)C[C@@H](C)[C@H](CN(C)S(=O)(=O)c2ccc(Cl)cc2)OCCCC[C@@H](C)O3)cc1,inactive
7,C[C@@H]1CN([C@H](C)CO)C(=O)c2cc(NC(=O)NC3CCCCC3)ccc2O[C@@H](C)CCCCO[C@@H]1CN(C)S(=O)(=O)c1cccs1,inactive
8,O=C(CN1CCOCC1)NCC[C@@H]1CC[C@H](NC(=O)Cc2ccccn2)[C@H](CO)O1,inactive
9,CCS(=O)(=O)N1CC[C@]2(CC1)CN([C@H](CO)c1[nH]c3cc(ccc3c12)OC)C(=O)Cc1ccccn1,inactive
10,C[C@@H]1CN([C@@H](C)CO)C(=O)c2cc(NC(=O)Cn3cnnn3)ccc2O[C@@H]1CN(C)Cc1ccc2c(c1)OCO2,inactive
11,CNC(=O)Nc1ccc(-c2nc(N3C[C@H]4CC[C@@H](C3)O4)c3cnn(C4CCC5(CC4)OCCO5)c3n2)cc1,inactive
12,C[C@H](CO)N1C[C@H](C)[C@H](CN(C)Cc2ccc(-c3ccccc3)cc2)Oc2c(NC(=O)Nc3ccc(C(F)(F)F)cc3)cccc2C1=O,inactive
13,C=CCN1C(=O)[C@]2(O[C@H](CCn3cc(CCO)nn3)[C@@H]([Si](C)(C)c3ccc(OC)cc3)[C@@H]2C)c2cc(N3CCC3=O)ccc21,inactive
14,COc1ccc(NC(=O)N(C)C[C@H]2Oc3c(NC(=O)C4CCOCC4)cccc3C(=O)N([C@@H](C)CO)C[C@H]2C)cc1,inactive
15,C[C@@H]1CN([C@@H](C)CO)C(=O)c2cccc(NC(=O)Nc3ccccc3)c2O[C@@H]1CN(C)Cc1ccc(-c2ccccc2)cc1,active
16,CC(=O)N[C@H]1C/C=C/C[C@@H](CC(=O)NCc2ccc(Cl)cc2)C(=O)NC[C@@H](c2ccccc2)OC1=O,inactive
17,C[C@@H]1CN([C@@H](C)CO)C(=O)Cc2cc(NC(=O)Cn3cnnn3)ccc2O[C@H]1CN(C)Cc1ccc(Oc2ccccc2)cc1,inactive
18,CC(C)NC(=O)N(C)C[C@@H]1Oc2ccc(NS(=O)(=O)c3ccc(Cl)cc3)cc2C(=O)N([C@H](C)CO)C[C@@H]1C,inactive
19,C[C@H](CO)N1C[C@H](C)[C@@H](CN(C)S(=O)(=O)c2cccs2)Oc2c(NS(C)(=O)=O)cccc2C1=O,inactive
20,C[C@@H](N)c1cnn(-c2ccc(F)cc2)c1,inactive

row,SMILES,cytotoxicity call
1,CCOC(=O)c1cc2c(c(-c3cccc(-c4cccc(OC)c4)c3)n1)[C@H](CCO)N(S(=O)C(C)(C)C)C2 (some centres undefined),inactive
2,COC(=O)Nc1nc2ccc(Sc3ccccc3)cc2[nH]1,active
3,Cc1noc(C)c1NC(=O)N(C)C[C@@H]1OCCCC[C@H](C)Oc2ccc(NC(=O)NC3CCCCC3)cc2C(=O)N([C@@H](C)CO)C[C@H]1C,inactive
4,CC(=O)N[C@H](CC(C)C)C(=O)O,inactive
5,Cc1ccc(S(=O)(=O)N(C)C[C@H]2Oc3c(NS(=O)(=O)c4ccc(F)cc4)cccc3C(=O)N([C@@H](C)CO)C[C@@H]2C)cc1,inactive
6,Cc1noc(C)c1S(=O)(=O)Nc1ccc2c(c1)CC(=O)N([C@H](C)CO)C[C@@H](C)[C@@H](CN(C)S(C)(=O)=O)O2,inactive
7,CN(C)CC(=O)N[C@@H]1CC[C@@H](CCNC(=O)C2CCC2)O[C@@H]1CO,inactive
8,Cc1noc(C)c1NC(=O)Nc1ccc2c(c1)CC(=O)N([C@@H](C)CO)C[C@H](C)[C@@H](CN(C)Cc1ccc(Oc3ccccc3)cc1)O2,inactive
9,Cc1ccc2c(c1)[C@](C)(O)CCS2,inactive
10,C[C@@H]1O[C@@H](O[C@@H]2[C@@H](O)[C@H](O)[C@@H](CO)O[C@H]2c2c(O)cc3oc(-c4ccc(O)cc4)cc(=O)c3c2O)[C@H](O)[C@H](O)[C@H]1O,inactive
11,C[C@@H]1CCCCO[C@H](CN(C)CC2CC2)[C@H](C)CN([C@H](C)CO)C(=O)c2cc(NC(=O)NC3CCCCC3)ccc2O1,inactive
12,O=C(C[C@@H]1CC[C@@H]2NC[C@H](O)COC[C@H]2O1)NCCN1CCCC1,inactive
13,CCCNC(=O)[C@@]1(C)c2ccccc2C(=O)N(Cc2ccc(OC(F)(F)F)cc2)[C@H]1c1ccc(CO)cc1,inactive
14,COc1ccc(CNCC(=O)O)cc1,inactive
15,C[C@@H]1O[C@H](O)[C@@H](F)[C@H](O)[C@@H]1O,inactive
16,C[C@@H]1CN([C@H](C)CO)C(=O)c2cc(NC(=O)Nc3cccc4ccccc34)ccc2O[C@@H](C)CCCCO[C@H]1CN(C)S(=O)(=O)c1ccc(Cl)cc1,inactive
17,COCCOC(=O)N1C(=O)[C@@]2(c3cc(C#CC4=CCCCC4)ccc31)[C@H](c1ccc(OCCO)cc1)N1[C@H](c3ccccc3)[C@H](c3ccccc3)OC(=O)[C@H]1[C@@H]2C(=O)N1CCc2cc(OC)c(OC)cc2C1,active
18,COC(=O)C1=C(C)NC(C)=C(C(=O)OCCCN2CCC(c3ccccc3)(c3ccccc3)CC2)[C@@H]1c1cccc([N+](=O)[O-])c1,active
19,C[C@H]1CN([C@@H](C)CO)C(=O)CCCn2cc(nn2)CO[C@@H]1CN(C)S(=O)(=O)c1cccc(C#N)c1,inactive
20,Cc1noc(C)c1NC(=O)Nc1cccc2c1O[C@@H](CN(C)C(=O)Nc1cccc3ccccc13)[C@@H](C)CN([C@H](C)CO)C2=O,inactive
